{
  "source": "PubChem BioAssay AID686979",
  "about": "(National Center for Advancing Translational Sciences (NCATS), 2013)",
  "note": "Out of some 420,000 compounds screened, about 50,000 (12%) were called active. Inconclusive results, whose numbers are uncertain, are shown with a selection of clear calls. Calls follow the shape of the dose curve; as a rule, active = well fitted inhibition curve with a large enough effect; inconclusive = small, poorly fitted or top-dose-only effect; inactive = flat fitted curve, though single readings scatter. Potencies of inconclusive entries are left out as doubtful fits. % is scaled to controls: 0 for no effect and ±100 for the full control effect; potency is read from the fitted curve at half-maximal effect; tags tell the direction and shape of the fitted curve.",
  "data": [
    {"experiment": "qHTS for Inhibitors of human tyrosyl-DNA phosphodiesterase 1 (TDP1): qHTS in cells in presence of CPT; also: nearly all actives have a fitted effect of over 55% in size", "details": "chicken DT40 Tdp1-/-;hTDP1 cells + 20 nM CPT, ATP luminescence, 48 h; activity change, negative = growth inhibition: at 46.2 µM (top of the series) unless noted", "method_in_brief": "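Chicken DT40 Tdp1-/- cells complemented with human TDP1, 400 cells/well, exposed to compounds plus 20 nM camptothecin for at least 48 h at 37 C; viability read as ATP content by CellTiter-Glo luminescence.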", "values": [
      {"smiles": "O=C(CCSc1nc(-c2ccco2)cc(C(F)(F)F)n1)NCCc1ccccc1", "Potency": "inconclusive [inhibitor, single point]"},
      {"smiles": "CC(C)c1ccc(S(=O)(=O)c2ccc(NN)cc2)cc1", "Potency": "inconclusive [inhibitor, single point]"},
      {"smiles": "O=C(c1ccc(Cn2c(=O)[nH]c3ccccc3c2=O)cc1)N1CCN(c2ccc(Cl)cc2)CC1", "Potency": "active: 23.1 µM"},
      {"smiles": "CCCCCCCCCCCCC/C=C/[C@@H](O)[C@H](CO)NC(C)=O", "activity change, negative = growth inhibition": "inactive: -14.7% [at 4.12 µM]"},
      {"smiles": "O=C(NNC(=S)NCc1ccc(Cl)cc1)c1ccc2c(c1)OCO2", "activity change, negative = growth inhibition": "inactive: -15.4%"},
      {"smiles": "Cc1ccc(C(=O)N/C(=C\\c2ccco2)C(=O)NCCN2CCOCC2)cc1", "activity change, negative = growth inhibition": "inactive: 18.6%"},
      {"smiles": "CCOC(=O)C1(CC2CC2)CCN(Cc2cc(Cl)c(O)c(OC)c2)CC1", "activity change, negative = growth inhibition": "inactive: 6.14%"},
      {"smiles": "Cc1cc2cc(C)c3nnc(SCC(=O)Nc4ccc(S(=O)(=O)N5CCCCC5C)cc4)n3c2cc1C", "note": "(stereo unspecified)", "Potency": "inconclusive [inhibitor, single point]"},
      {"smiles": "COc1ccc([C@@H]2CC=C(C(=O)O)[C@H](c3ccc(F)cc3)N2S(=O)(=O)c2ccc(Cl)cc2)cc1", "activity change, negative = growth inhibition": "inactive: -20.4%"},
      {"smiles": "CC(=O)c1ccc(N2CCN(C(=O)C3CCCN(S(=O)(=O)c4ccc(Br)s4)C3)CC2)cc1", "note": "(stereo unspecified)", "Potency": "active: 14.6 µM"},
      {"smiles": "OC[C@@H]1CN(Cc2ccc(F)cc2)C[C@H](n2cnc3c(NCc4ccc(F)cc4)ncnc32)O1", "Potency": "inconclusive [inhibitor, partial curve, poor fit]"},
      {"smiles": "CCOC(=O)C1CCCN(C(=O)c2cccc(OC(F)(F)F)c2)CC1", "note": "(stereo unspecified)", "Potency": "inconclusive [inhibitor, single point]"},
      {"smiles": "CCC1CN(S(=O)(=O)c2cc(-c3cc(C)no3)ccc2C)c2cc(C)ccc2O1", "note": "(stereo unspecified)", "Potency": "active: 20.6 µM"},
      {"smiles": "CCCn1c(NC(=O)C2COc3ccccc3O2)nc2ccccc21", "note": "(stereo unspecified)", "Potency": "active: 18.4 µM"},
      {"smiles": "COc1ccccc1N1CCN(c2cc(=O)n(Cc3ccc(F)cc3)c(=O)[nH]2)CC1", "Potency": "active: 3.66 µM"},
      {"smiles": "Cn1nc(C(C)(C)C)cc1C(=O)N1CCCCC1c1cc(C(=O)NCc2ccc(F)cc2)no1", "note": "(stereo unspecified)", "Potency": "active: 20.6 µM"},
      {"smiles": "Cn1cnc([N+](=O)[O-])c1Oc1cccc2ccccc12", "Potency": "inconclusive [inhibitor, single point]"},
      {"smiles": "COc1ccc(F)cc1-c1cc(C(=O)NCc2cc(C(F)(F)F)cc(C(F)(F)F)c2)[nH]n1", "Potency": "active: 18.4 µM"},
      {"smiles": "Cc1ccc(CNC(=O)c2ccccc2NS(=O)(=O)c2ccc(Cl)nc2)cc1", "activity change, negative = growth inhibition": "inactive: -23%"},
      {"smiles": "O=C1CN(C(=O)COC(=O)CNS(=O)(=O)/C=C/c2ccccc2)c2ccccc2N1", "activity change, negative = growth inhibition": "inactive: 1.44%"},
      {"smiles": "Clc1cnc(N/N=C/c2ccncc2)c(Cl)c1", "Potency": "inconclusive [inhibitor, single point]"},
      {"smiles": "Cn1c(C(=O)N(Cc2ccccc2)Cc2ccccn2)cc2sccc21", "Potency": "inconclusive [inhibitor, partial curve, poor fit]"},
      {"smiles": "COc1ccccc1-c1oc2ccccc2c1C#CC1(N)CCCCC1", "Potency": "active: 16.4 µM"},
      {"smiles": "O=C(Nc1c(C(=O)N2CCOCC2)oc2ccccc12)c1ccccc1Cl", "Potency": "inconclusive [inhibitor, partial curve]"},
      {"smiles": "CC1(c2ccc(Cl)cc2)NC(=O)N(CC(=O)N2CCCC2)C1=O", "note": "(stereo unspecified)", "activity change, negative = growth inhibition": "inactive: 0.549%"},
      {"smiles": "CC(C)NC(=O)C1(C)CSCC(=O)N1C1CC1", "note": "(stereo unspecified)", "activity change, negative = growth inhibition": "inactive: -20.6%"},
      {"smiles": "N#Cc1nc(-c2ccc(OCc3ccccc3)cc2)oc1NCCCN1CCOCC1", "Potency": "active: 20.6 µM"},
      {"smiles": "CCn1c(SCC(=O)c2ccc(O)c(O)c2)nnc1-c1ccccc1", "Potency": "inconclusive [inhibitor, single point]"},
      {"smiles": "Cc1ccc(-c2nnc(Nc3cccc(Cl)c3)c3ccccc23)cc1S(=O)(=O)N1CCCCC1", "Potency": "inconclusive [inhibitor, partial curve]"},
      {"smiles": "CN(C(=O)Nc1ccc(C(C)(C)C)cc1)C1CCCCC1", "activity change, negative = growth inhibition": "inactive: -24.6%"},
      {"smiles": "CCCC(O)(c1ccc(OC)cc1)C(CN(C)C)c1ccccc1", "note": "(stereo unspecified)", "activity change, negative = growth inhibition": "inactive: -2.36%"},
      {"smiles": "Cc1c(Br)cc(C(=O)NCc2ccco2)c(C)c1C", "Potency": "inconclusive [inhibitor, single point]"},
      {"smiles": "Cc1ccc(C)c(N2CCN(S(=O)(=O)c3cc(-c4cc(C)no4)ccc3C)CC2)c1", "Potency": "inconclusive [inhibitor, single point]"},
      {"smiles": "COc1ccc(-c2nnc(SCC(=O)NCCc3ccc(OC)c(OC)c3)nc2-c2ccc(OC)cc2)cc1", "Potency": "active: 18.4 µM"},
      {"smiles": "CC(C)OC(=O)c1ccc(N2CCN(c3ccc(F)cc3)CC2)nc1", "Potency": "inconclusive [inhibitor, single point]"},
      {"smiles": "Cc1nc2cccnc2n1-c1cccc(C(=O)N2CCN(c3cccc(Cl)c3)CC2)c1", "Potency": "active: 4.11 µM"},
      {"smiles": "CCOc1ccccc1N(C)C(=O)c1sc2ncn(CC(=O)N3CCCCC3C)c(=O)c2c1C", "note": "(stereo unspecified)", "Potency": "inconclusive [inhibitor, single point]"},
      {"smiles": "CCc1nc2sc3c(c2c(=S)[nH]1)CC(C)(C)OC3", "Potency": "inconclusive [inhibitor, single point]"},
      {"smiles": "CN1C(=O)/C(=C/c2cc(C(C)(C)C)c(O)c(C(C)(C)C)c2)NC1=S", "activity change, negative = growth inhibition": "inactive: -18.2%"},
      {"smiles": "CC1(C(=O)NS(=O)(=O)C2CC2)CCCN(C(=O)c2ccc(F)cc2Cl)C1", "note": "(stereo unspecified)", "Potency": "inconclusive [inhibitor, full curve]"},
      {"smiles": "COc1ccc(OC2(C)CCN(Cc3ccc(-c4ccccc4)o3)C2)cc1", "note": "(stereo unspecified)", "Potency": "active: 20.6 µM"},
      {"smiles": "O=C(Cn1cnc2c(OCc3ccccc3)ncnc21)NCc1ccc2[nH]ccc2c1", "Potency": "inconclusive [inhibitor, single point]"},
      {"smiles": "CC(C)NC(=O)C1(C)CN(S(C)(=O)=O)CC(=O)N1Cc1cccs1", "note": "(stereo unspecified)", "activity change, negative = growth inhibition": "inactive: -0.466%"},
      {"smiles": "O=C(CN1C(=O)C(c2ccc(F)cc2)=NC12CCCCCC2)Nc1ccccc1Cl", "Potency": "inconclusive [inhibitor, single point]"},
      {"smiles": "Cc1ccccc1-n1c(C)cc(/C=N/NC(=O)c2ccc(CN3CCOCC3)cc2)c1C", "Potency": "inconclusive [inhibitor, single point]"},
      {"smiles": "CCN(CC(=O)NC(C)C)C(=O)[C@@H](NC(=O)c1ccco1)C(C)C", "activity change, negative = growth inhibition": "inactive: 19.4%"}
    ]}
  ]
}
